According to paper PMC10716038, “Talin and kindlin use integrin tail allostery and direct binding to activate integrins” (Nature Structural & Molecular Biology, 2023):
A number of entries come with more than one value. The list is limited to them. An entry can have further records. Results that share an entry seem to repeat one measurement; a mean can stand among them.

Legend:
[1] = target: β1-TM–CT Y783A (THD1-binding impaired) in nanodiscs (UniProt P09055); test: flow cytometry-based reporter-displacement assay (FC-RDA) on beads; biotinylated TM–CT in 10% PIP3/90% DMPC nanodiscs on streptavidin beads; reporter 100 nM 565–THD1, unlabelled competitor titrated; 20 mM Tris pH 7.5, 200 mM NaCl, room temperature; IC50 of individual experiments; charged lipids contribute to the binding
[2] = target: β1-TM–CT Y783A (THD1-binding impaired) in nanodiscs (UniProt P09055); test: flow cytometry-based reporter-displacement assay (FC-RDA) on beads; biotinylated TM–CT in 10% PIP2/90% DMPC nanodiscs on streptavidin beads; reporter 50 nM 647–KIND2, unlabelled competitor titrated; 20 mM Tris pH 7.5, 200 mM NaCl, room temperature; IC50 of individual experiments; charged lipids contribute to the binding
[3] = target: β1-TM–CT Y783A (THD1-binding impaired) in nanodiscs (UniProt P09055); test: flow cytometry-based reporter-displacement assay (FC-RDA) on beads; biotinylated TM–CT in 10% PIP2/90% DMPC nanodiscs on streptavidin beads; reporter 100 nM 565–THD1, unlabelled competitor titrated; 20 mM Tris pH 7.5, 200 mM NaCl, room temperature; IC50 of individual experiments; charged lipids contribute to the binding
[4] = target: β1-TM–CT Y795A (KIND2-binding impaired) in nanodiscs (UniProt P09055); test: flow cytometry-based reporter-displacement assay (FC-RDA) on beads; biotinylated TM–CT in 10% PIP3/90% DMPC nanodiscs on streptavidin beads; reporter 100 nM 565–THD1, unlabelled competitor titrated; 20 mM Tris pH 7.5, 200 mM NaCl, room temperature; IC50 of individual experiments; charged lipids contribute to the binding
[5] = target: β1-TM–CT Y795A (KIND2-binding impaired) in nanodiscs (UniProt P09055); test: flow cytometry-based reporter-displacement assay (FC-RDA) on beads; biotinylated TM–CT in 10% PIP2/90% DMPC nanodiscs on streptavidin beads; reporter 50 nM 647–KIND2, unlabelled competitor titrated; 20 mM Tris pH 7.5, 200 mM NaCl, room temperature; IC50 of individual experiments; charged lipids contribute to the binding
[6] = target: β1-TM–CT Y795A (KIND2-binding impaired) in nanodiscs (UniProt P09055); test: flow cytometry-based reporter-displacement assay (FC-RDA) on beads; biotinylated TM–CT in 10% PIP2/90% DMPC nanodiscs on streptavidin beads; reporter 100 nM 565–THD1, unlabelled competitor titrated; 20 mM Tris pH 7.5, 200 mM NaCl, room temperature; IC50 of individual experiments; charged lipids contribute to the binding
[7] = target: β1-TM–CT Y795A (KIND2-binding impaired) in nanodiscs (UniProt P09055); test: flow cytometry-based reporter-displacement assay (FC-RDA) on beads; biotinylated TM–CT in 10% PIP3/90% DMPC nanodiscs on streptavidin beads; reporter 50 nM 647–KIND2, unlabelled competitor titrated; 20 mM Tris pH 7.5, 200 mM NaCl, room temperature; IC50 of individual experiments; charged lipids contribute to the binding

Row | IC50 [6] | Binder | IC50 [1] | IC50 [2] | IC50 [3] | IC50 [4] | IC50 [5] | IC50 [7]
1 | – | kindlin-2 (KIND2) (natural protein) MALDGIRMPDGCYADGTWELSVHVTDLNRDVTLRVTGEVHIGGVMLKLVEKLDVKKDWSDHALWWEKKRTWLLKTHWTLDKCGIQADAKLQFTPQHKLLRLQLPNMKYVKVKVNFSDRVFKAVSDICKTFNIRHPEELSLLKKPRDPTKKKKKKLDDQSEDEALELEGPLIMPGSGSIYSSPGLYSKTMTPTYDAHDGSPLSPTSAWFGDSALSEGNPGILAVSQPVTSPEILAKMFKPQALLDKAKTNQGWLDSSRSLMEQDVKENEALLLRFKYYSFFDLNPKYDAIRINQLYEQAKWALLLEEIECTEEEMMMFAALQYHINKLSIMTSENHLNNSDKEVDEVDAALSDLEITLEGGKTSTILGDITSIPELADYIKVFKPKKLTLKGYKQYWCTFKDTSISCYKSREESSGTPAHQLNLRGCEVTPDVNISGQKFNIKLLIPVAEGMNEIWLRCDNEKQYAHWMAACRLASKGKTMADSSYNLEVQNILSFLKMQHLNPDPQLIPDQITTDVNPECLVSPRYLKKYKSKQITARILEAHQNVAQMSLIEAKMRFIQAWQSLPEFGITHFIARFQGGKREELIGIAYNRLIRMDASTGDAIKTWRFSNMKQWNVNWEIKMVTVEFADEVRLSFICTEVDCKVVHEFIGGYIFLSTRAKDQNESLDEEMFYKLTSGWV | 151 nM, 267 nM, 102 nM, 1.21 µM [lines of one column] | 204, 196, 93, 48 nM [lines of one column] | 2.72 µM, 351 nM, 188 nM, 121 nM [lines of one column] | – | – | –
2 | 68, 52, 26, 37 nM [lines of one column] | talin-1 head domain (THD1) (domain or fragment, UniProt P26039 1-405, looked up, talin-1 (TLN1) head domain (THD), residues 1-405; murine TLN1 cDNA is named only for the cell lines; also called WT; source: E. coli (DE3) Rosetta 2, purified (IMAC, SEC); not shown: His10-SUMO, N-terminal, cleaved) MVALSLKISIGNVVKTMQFEPSTMVYDACRMIRERIPEALAGPPNDFGLFLSDDDPKKGIWLEAGKALDYYMLRNGDTMEYRKKQRPLKIRMLDGTVKTIMVDDSKTVTDMLMTICARIGITNHDEYSLVRELMEEKKDEGTGTLRKDKTLLRDEKKMEKLKQKLHTDDELNWLDHGRTLREQGVEEHETLLLRRKFFYSDQNVDSRDPVQLNLLYVQARDDILNGSHPVSFDKACEFAGFQCQIQFGPHNEQKHKAGFLDLKDFLPKEYVKQKGERKIFQAHKNCGQMSEIEAKVRYVKLARSLKTYGVSFFLVKEKMKGKNKLVPRLLGITKECVMRVDEKTKEVIQEWSLTNIKRWAASPKSFTLDFGDYQDGYYSVQTTEGEQIAQLIAGYIDIILKKKKS | – | – | – | 85, 126, 186, 114, 125 nM [lines of one column] | 115, 68, 179, 29 nM [lines of one column] | 360, 466, 284, 197 nM [lines of one column]
